ChEMBL document CHEMBL4888484, “Replenishing the malaria drug discovery pipeline: Screening and hit evaluation of the MMV Hit Generation Library 1 (HGL1) against asexual blood stage Plasmodium falciparum ,using a nano luciferase reporter read-out” (2022)
Out of some 150,000 compounds screened, about 540 (0.36%) showed an effect of 50% or more. The list shows a part of the results.

tested on: Plasmodium falciparum; experiment: Primary screen in NF54 nanoGlo assay, in single point, at 2uM, 72h; a lower Z score goes with more inhibition; assay type: functional, Erythrocyte; details: timepoint 72 hour

SMILES | % Inhibition | Z score
Cn1c(=O)[nH]c2ncc(-c3cccc(C(=O)NC4CCOCC4)c3)cc21 | -7% | 1.4
Cc1cc(C)n(CCC(=O)N2CCCCc3cccnc32)n1 | -20% | 3.43
CN(C)c1cnc(C(=O)NC(C)(C)C(C)(F)F)cn1 | 0% | 0.08
COc1cc(C(=O)CN(C)C(C)=O)cc2c1OCO2 | -49% | 5.72
CNc1nc(C)c(C(=O)N2CCC3(CC2)c2ccccc2C[C@@H]3O)s1 | -2% | 0.44
COC1CCCN(C(=O)CC2(c3ccccc3)CC(=O)N(CCc3ccccn3)C2=O)C1 (stereo unspecified) | -2% | 0.3
COc1ccc(NS(=O)(=O)c2ccc3onc(C(=O)N4CCCC4)c3c2)cc1 | -6% | 0.99
C[C@H](NC(=O)NCCOc1ccc(F)c(F)c1)c1ccncc1 | -9% | 1.9
COc1ccc(-n2c(-c3cnccn3)n[nH]c2=O)c(C)c1 | -14% | 1.77
Cc1cc(C(=O)CN2C(=O)NC(C)(c3ccccc3Cl)C2=O)c(C)n1CC1CCCO1 (stereo unspecified) | -6% | 0.98
Cc1nc(CN(Cc2cccnc2)Cc2ccco2)cs1 | 2% | -0.28
COc1ccc(-c2cnn3c2N(C)CC3)c(F)c1 | -1% | 0.2
O=C(NC1CCCCC1OC1CCCC1)c1csnn1 (stereo unspecified) | -7% | 1.01
COc1ccnc(N2C[C@@H]3OCC(=O)N(CC4CC4)[C@@H]3C2)n1 | -6% | 0.87
Cc1ccc(C(=O)N2CC(C)NC(C)C2)n1C (stereo unspecified) | -20% | 2.36
O=C(OCC1CCOCC1)c1cnn2ncccc12 | 14% | -1.78
Cc1cccc(NC(=O)COc2ccc3c(c2)OCO3)n1 | -3% | 0.51
CCOc1ccc(NC(=O)c2ccccc2N2C(=O)[C@@H]3Cc4c([nH]c5ccccc45)C(c4cccc(OC)c4)N3C2=O)cc1 (stereo partly specified) | -1% | 0.05
CCOc1ccc(C(=O)NCC2(CO)CC2)o1 | -2% | 0.2
CCCCN1C(=O)c2ccccc2C(C(=O)NCCC2CCCN2C)C1c1cccc(Cl)c1 (stereo unspecified) | -24% | 2.08
Cc1cc(C)c(NCC(=O)NCCc2cccs2)c(C)c1 | -12% | 2.31
Cc1cccc(OCC(=O)NC(C)C)c1 | 3% | -0.32
CCOc1ccc(S(=O)(=O)N[C@H]2CCCN(c3ncccn3)C2)cc1 | 2% | -0.34
O=C(Nc1ccc2c(c1)OCCO2)c1cn(Cc2cccc(F)c2)nc1OCc1cccc(F)c1 | 11% | -1.26
COCCN(C)C[C@H]1C[C@H](CO)CN(c2nc3cc(C)ccc3o2)C1 | -19% | 1.66
C[C@H]1CCCN(C(=O)Cc2cccc3ccccc23)C1 | -10% | 1.27
COCCCCNC(=O)CNc1cc(Cl)ccc1OC | -13% | 1.8

SMILES | % Inhibition | Z score
Cc1ccc(Cl)cc1S(=O)(=O)N[C@@H](C)c1nccs1 | -2% | 0.43
O=C(Nc1ccc(C(=O)N2CCCCC2)cc1)c1cc(Cl)ccc1Cl | -9% | 1.33
O=C(NCCn1ccnc1C1CC1)Nc1cccs1 | 11% | -1.44
Cc1ccc(N(C(=O)c2cc(C3CC3)on2)C2CCCCC2)nc1 | -7% | 1.38
O=C(Cc1coc2cc(Cl)ccc12)N[C@@H](CC1CC1)C(=O)O | -16% | 1.99
COc1ccc(N2CCN(C(=O)N[C@H]3CN(C)C[C@@H]3OC)CC2)cc1 | 2% | -0.3
CC(NC(=O)NC1COCC1O)C(C)c1ccccc1C(F)(F)F (stereo unspecified) | -6% | 0.77
Cc1ccc(-n2ncnc2CCCN2CCCC2=O)c(C)c1 | -16% | 2.04
CCC(c1cccs1)N1C(=O)[C@H]2CN(S(=O)(=O)c3cccc(Cl)c3)C[C@H]2C1=O (stereo partly specified) | 4% | -0.81
COC(=O)c1cc(OCC(=O)Nc2cc(F)ccc2F)c2cc(F)ccc2n1 | -11% | 1.91
CCOc1ccccc1NC(=O)C[C@H]1C(=O)Nc2ccccc2N1C(=O)COc1ccccc1OC | 3% | -0.47
COc1ccc(-n2nc(C)c3sc(N4CCN(C(=O)C(C)(C)C)CC4)nc32)cc1 | 8% | -0.96
Cc1cc(NC(=O)N(C)Cc2ccccn2)ccc1N1CCCC1 | 4% | -0.73
CCOC(=O)C1CCN(C(=O)Cc2ccc(N(Cc3cccc(F)c3)C(=O)CC(C)C)cc2)CC1 | -6% | 0.75
Cc1nc(CO[C@H]2CCCN(Cc3ccc4cc[nH]c4c3)C2)no1 | 7% | -1.03
O=C([C@@H](O)C1CC1)N1CCC(c2nc(C(F)(F)F)cs2)CC1 | 3% | -0.38
CCn1ncnc1[C@@H](NC(=O)c1ccc(N2CC(=O)NC2=O)cc1)C1CC1 | 1% | -0.14
CC(Oc1ccccc1)C(=O)N1CCCC1c1nc(-c2cccc(Cl)c2)no1 (stereo unspecified) | -1% | 0.1
Cc1ccc(CNC(=O)CN2C(=O)CCn3nc(-c4cn(C)c5ccccc45)cc32)o1 | 3% | -0.55
O=c1ccc(N2CCC[C@H](NS(=O)(=O)c3ccc(F)c(Cl)c3)C2)n[nH]1 | -10% | 1.3
COc1ccc(CN2CCN(C(=O)N(C)C)[C@H]3CS(=O)(=O)C[C@H]32)cc1 | 5% | -0.76
CCc1ccc(-c2ccc(C(=O)N3CCOC[C@H]3C(=O)O)o2)cc1 | -16% | 1.62
CCC(O)C1CCCCN1Cc1c(C)nc2ccccn12 (stereo unspecified) | -5% | 0.87
CCN(CC)C(=O)CN1CCCN(C(=O)c2ccc(-c3nncn3CC)cc2)CC1 | -7% | 0.9
O=S(=O)(Cc1ccc(Cl)cc1-n1cncn1)CC1CC1 | -4% | 0.71
O=C(NCc1ccc(N2CCOCC2)cc1)c1cn(CCN2CCOCC2)nn1 | -10% | 1.32
